Hit rate of the full screen: of about 94,000 compounds, about 4,000 (4.3%) were called active. The shares of active, inactive and inconclusive entries below differ from those in the screen. Calls follow the shape of the dose curve; as a rule, active = well fitted inhibition curve with a large enough effect; inconclusive = small, poorly fitted or top-dose-only effect; inactive = no such curve, though single readings can be large or run the other way. Where the call is inconclusive, the potency comes from a doubtful curve fit.
Experiment: Cytotoxic Profiling in NIH 3T3 Cell Line of Diverse Libraries Using Quantitative High-Throughput Screening; also: nearly all actives have a fitted effect of over 55% in size
Details: NIH 3T3 viability, CellTiter-Glo ATP luminescence, 48-72 h; activity change, negative = cytotoxicity: at 96.7 µM (top of the series) unless noted; series mostly up to 96.7 µM
Summary of the method: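 ATP-dependent luminescence (CellTiter-Glo) served as the viability signal for NIH 3T3 cells treated with compound for 48 or 72 hr at 37 °C.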
% is scaled to controls: 0 for no effect and ±100 for the full control effect; potency is read from the fitted curve at half-maximal effect; tags tell the direction and shape of the fitted curve.

SMILES	Potency	activity change, negative = cytotoxicity
COc1ccccc1C(O)c1nc(Nc2ccc(C(F)(F)F)cc2)n[nH]1 (stereo unspecified)	inconclusive: 7.94 µM [inhibitor, full curve, poor fit]	–
COc1ccccc1CC(=O)N1CCC(Cc2nc(-c3ccc(F)cc3)no2)CC1	inconclusive: 10 µM [inhibitor, partial curve, poor fit]	–
O=C1CC(c2ccccc2)N(C(=O)CNS(=O)(=O)c2ccc3c(c2)CCC3)CCCCCCN1 (stereo unspecified)	inconclusive: 56.2 µM [inhibitor, partial curve, poor fit]	–
COc1ccccc1-n1c(=O)c(C(=O)NCc2ccccc2F)nc2cccnc21	–	inactive: -12.5%
Cc1ccc2c(C(=O)Nc3ccc(F)cc3)cnn2c1	inconclusive: 89.1 µM [inhibitor, partial curve, poor fit]	–
COCCCNc1ccc2nnc(-c3ccccn3)n2n1	inconclusive: 112 µM [inhibitor, single point]	–
O=C(NCC(=O)N1CCCC1)c1ccc(-c2cccc(C(F)(F)F)c2)cc1	inconclusive: 39.8 µM [inhibitor, partial curve]	–
Cc1nn2c(c1-c1ccccc1C(C)C)N(C(=O)c1cc3ccccc3n1C)CCC2	active: 22.4 µM	–
CC(C)(O)CCc1ccc(C(=O)NCc2noc(-c3ccco3)n2)cc1	–	inactive: -5.52%
COCC(=O)NC1CCC12CCN(C(=O)c1ccc3[nH]ccc3c1)CC2 (stereo unspecified)	–	inactive: 4.22%
COCCNC(=O)[C@H]1C[C@H](Oc2ccccc2)CN1C(=O)c1cccc(C)c1	inconclusive: 79.4 µM [inhibitor, partial curve, poor fit]	–
O=c1n(CCN2CCCN([S+](=O)([O-])c3cccc(C(F)(F)F)c3)CC2)nc2n1CCCC2	–	inactive: -21.1%
Cc1ccccc1C(=O)N1CC2(Cc3ccccc3NC2=O)C1	–	inactive: -5.98%
CC(=O)Nc1cccc(-c2n[nH]c3c2CC(=O)N(CCOc2ccccc2)C3)c1	active: 35.5 µM	–
Cc1ccc(-c2noc([C@@H]3CCCN3C(=O)c3cc(Cl)ccc3F)n2)cc1	inconclusive: 50.1 µM [inhibitor, partial curve, poor fit]	–
CCOc1ccccc1CN1CCCCCCNC(=O)CC1c1ccccc1 (stereo unspecified)	active: 25.1 µM	–
COc1cccc(CN2CCC(N3C(=O)c4c(c(C)nn4-c4ccccc4)C3C3CC3)CC2)c1 (stereo unspecified)	inconclusive: 25.1 µM [inhibitor, partial curve]	–
Cc1nn(C)c(C)c1CCC(=O)NCCc1ncc(C)n1C1CCCCC1	–	inactive: -12%
C[S+](=O)([O-])c1ccc(-c2cnc3[nH]cc(CC(=O)N4CCOCC4)c3c2)cc1	active: 44.7 µM	–
CC[C@H]1CN(C(=O)Nc2ccccc2)CC[C@H]1CC(=O)NCc1ccc(F)cc1	inconclusive: 126 µM [inhibitor, single point]	–
CC1=C[C@@H](CNC(=O)C2CCCCC2)[C@H](C(C)C)C[C@H]1Cc1nc2ccccc2n1C	active: 31.6 µM	–

SMILES	Potency	activity change, negative = cytotoxicity
CCC1Oc2ccc(NC(=O)c3ccc([N+](=O)[O-])cc3)cc2CN(Cc2ccccc2F)C1=O (stereo unspecified)	inconclusive: 31.6 µM [inhibitor, partial curve]	–
CCC1Oc2ccc(NC(=O)c3c(F)cccc3F)cc2CN(Cc2ccc3c(c2)OCO3)C1=O (stereo unspecified)	inconclusive: 44.7 µM [inhibitor, partial curve, poor fit]	–
CCCCNC(=O)c1cccc2c1CCN2C(=O)Nc1ccc(C)cc1	inconclusive: 39.8 µM [inhibitor, partial curve, poor fit]	–
COc1ccc(CN2CCc3nc(C(=O)Nc4ccc(Cl)cc4)oc3CC2)cc1OC	inconclusive: 44.7 µM [inhibitor, partial curve, poor fit]	–
O=C(Cc1ccc(OC(F)(F)F)cc1)Nc1cccn2nc(C3CC3)nc12	inconclusive: 28.2 µM [inhibitor, partial curve]	–
COC(=O)CCC(=O)N[C@H]1CO[C@H]2[C@@H]1OC[C@H]2OCc1ccccc1	–	inactive: 4.65% [at 174 µM]
Cc1cc(C)c(CNC(=O)c2cc(-c3cnn(C)c3C)cc3c2OCCN3C(C)C)c(=O)[nH]1	inconclusive: 50.1 µM [inhibitor, partial curve, poor fit]	–
Cc1ccc(F)c(OCC(=O)c2ccc3c(c2)N(CCCC(=O)NCC2CCCO2)C(=O)CO3)c1 (stereo unspecified)	inconclusive: 50.1 µM [inhibitor, partial curve, poor fit]	–
CC1(C(=O)N2CCCC2)CCCc2cnc(Nc3ccccc3)nc21 (stereo unspecified)	–	inactive: -23.8% [at 138 µM]
CCC1(O)CCC12CCN(C(=O)COc1ccc(F)cc1)CC2 (stereo unspecified)	–	inactive: -23.6%
CC1=C[C@@H](CNC(=O)CCC(=O)O)[C@H](C(C)C)C[C@H]1Cc1nc2ccccc2n1C	inconclusive: 79.4 µM [inhibitor, partial curve]	–
COc1ccc(-c2ccc3ncn(-c4ccc(F)cc4F)c(=O)c3n2)cc1OC	inconclusive: 44.7 µM [inhibitor, partial curve, poor fit]	–
COc1ccc(CCC(=O)N2CCC3(CC2)NC(=O)N(c2cccc(Cl)c2)N3)cc1	inconclusive: 44.7 µM [inhibitor, partial curve, poor fit]	–
O=C(CCc1nc2ccccc2s1)N1CCC(c2noc(-c3ccncc3)n2)C1 (stereo unspecified)	–	inactive: -22.6%
Cc1noc([C@H]2CCN(Cc3cccnc3)C[C@H]2NC(=O)C2CC2)n1	inconclusive: 70.8 µM [inhibitor, single point]	–
COc1ccc(Nc2ccnc(N3CCN(C(=O)Nc4ccccc4)CC3)n2)cc1	inconclusive: 39.8 µM [inhibitor, partial curve, poor fit]	–
O=C(NCCC1CCCCC1)C1CCCN(Cc2cccc(-c3ccsc3)c2)C1 (stereo unspecified)	inconclusive: 39.8 µM [inhibitor, partial curve, poor fit]	–
COCCN1C(=O)c2ccccc2C(C(=O)Nc2ccc(F)cc2)C12CCCC2 (stereo unspecified)	–	inactive: -13.2%
COc1ccc(CN2CCc3nc(C(=O)N4CCOCC4)oc3CC2)cc1OC	inconclusive: 89.1 µM [inhibitor, partial curve]	–
COCCOCc1ccc(CC2CCN(C(=O)c3ccc(OC)cc3OC)CC2)cc1	inconclusive: 17.8 µM [inhibitor, full curve]	–
